This is an account of results in the supplement of paper PMC4723716.

± gives the uncertainty stated by the source. In all, about 9,900 compounds were measured (“viability index relative to DMSO control”: median about 1, lowest 2% from about 0.85 on). The list shows a part of the results.

The assay relates to Plasmodium falciparum NF54 stage V gametocytes. Put plainly: viability index relative to DMSO control (fraction); higher = less gametocyte killing. The note with it: 2.5 µM, library set: Broad Institute DOS, incubation time: 72 h. The procedure, abridged: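 P. falciparum NF54 stage V gametocytes (serum-free medium, 0.75% gametocytemia, 1.25% hematocrit) were exposed to compound at 2.5 µM for 72 hr at 37°C under low oxygen, then stained with MitoTracker Red CMXRos and saponin for one to two hours. Red particles of 20–70 µm2 in one field per well were counted, and the viability index is that count scaled to the plate mean of solvent-only wells.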
As to `COc1ccc(CN2C[C@@H](O)COC[C@@H]3O[C@@H](CC(=O)N(C)C)CC[C@H]32)cc1`, the viability index stood at 1.12 ± 0.013.
For `CO[C@@H]1CC[C@@H]2CCOc3ccc(C#N)cc3C(=O)N(C)C[C@@H](c3ccccc3)CC(=O)N(C)C[C@H]1O2` the value was 1.02 ± 0.075; for `COc1ccc(S(=O)(=O)Nc2cccc3c2O[C@@H](CN(C)CC2CCCCC2)[C@@H](C)CN([C@@H](C)CO)C3=O)cc1`, 0.969 ± 0.07.
Regarding `COc1ccccc1-c1ccc([C@H]2[C@H]3CNC[C@@H]2N3S(=O)(=O)c2ccc(F)cc2)cc1`, the viability index worked out at 1.05 ± 0.071.
`O=C(c1ccccc1F)N1CC(=O)N2[C@H](CO)[C@@H](c3ccc(C#Cc4ccccc4)cc3)[C@@H]2C1` registered a viability index of 0.982 ± 0.024.
Consider `Cc1ccccc1-c1ccc([C@H]2[C@@H](CO)N3CCCCN(S(=O)(=O)Cc4ccccc4)C[C@H]23)cc1`, for which the viability index came out at 0.952 ± 0.028.
For `COc1ccccc1-c1ccc2c(c1)O[C@@H](CN(C)CC1CCOCC1)[C@@H](C)CN([C@@H](C)CO)S2(=O)=O` the value was 1.01 ± 0.08.
To `CC(=O)N1[C@H](CO)[C@H](c2ccccc2)[C@@H]1CN(CC(C)C)C(=O)c1ccccn1` belongs 1.05 ± 0.012.
The molecule `O=C(C[C@H]1CC[C@@H]2[C@H](COC[C@H](O)CN2Cc2ccc(Oc3ccccc3)cc2)O1)N1CCN(c2ccccc2)CC1` had a viability index of 1.08 ± 0.12.
On to `CO[C@@H]1CN(C)C(=O)c2ccc(NC(=O)C3CCC3)cc2OC[C@@H](C)N(Cc2ccccn2)C[C@H]1C`, for which the viability index was found to be 1.1 ± 0.033.
As to `CN1c2ccc(-c3cccc(C#N)c3)cc2[C@@H]2[C@@H](CCN2C(=O)Cc2ccccn2)[C@@H]1CO`, the viability index was found to be 0.9765 ± 0.0085.
Molecule `Cc1noc(C)c1S(=O)(=O)N(C)C[C@H]1Oc2c(NC(=O)c3ccc(-c4nccs4)cc3)cccc2C(=O)N([C@H](C)CO)C[C@@H]1C` showed a viability index of 0.976 ± 0.013.
To `COc1ccc(C#Cc2ccc([C@@H]3[C@H]4CN(C(=O)c5ccc(F)cc5)CC(=O)N4[C@H]3CO)cc2)cc1` belongs 1.02 ± 0.073.
For `CO[C@@H]1CC[C@@H]2CCOc3ccc(C#N)cc3C(=O)N(C)C[C@H](c3ccccc3)CC(=O)N(C)C[C@H]1O2` the value was 1.02 ± 0.058; for `C/C=C/c1ccc([C@H]2[C@@H]3CN(C(=O)NC4CCCCC4)C[C@H]2N3)cc1`, 1.05 ± 0.056; for `O=C(Nc1ccccc1Cl)N1C[C@@H]2[C@H](c3ccccc31)[C@H](CO)N2C(=O)c1cccnc1`, 1.07 ± 0.012.
To `N#C[C@H]1[C@H](c2ccccc2-c2cccc(F)c2)[C@@H](CO)N1C(=O)C1CC1` belongs 1.15 ± 0.019.
The molecule `O=C1CNC[C@H]2[C@H](c3ccc(C4=CCCC4)cc3)[C@H](CO)N12` yielded a viability index of 0.995 ± 0.021.
For `C[C@H](NC(=O)C[C@H]1C[C@@H]2c3cc(NS(=O)(=O)c4ccc(F)cc4)ccc3O[C@@H]2[C@H](CO)O1)c1ccccc1` the value was 1.07 ± 0.011.
